# Experimental data published in PubChem BioAssay AID1345082 (National Center for Advancing Translational Sciences (NCATS), 2018).
# The campaign covered roughly 94,000 compounds. About 4,000 (4.3%) were called active. The shares of active, inactive and inconclusive entries below differ from those in the screen. The call rests on the fitted dose curve; in most records, active means well fitted inhibition curve with a large enough effect; inconclusive means small, poorly fitted or top-dose-only effect; inactive means no such curve, though single readings can be large or run the other way. Potencies of inconclusive entries are doubtful fits and often do not repeat.
# Experiment: Cytotoxic Profiling in NIH 3T3 Cell Line of Diverse Libraries Using Quantitative High-Throughput Screening; further: nearly all actives have a fitted effect of over 55% in size
# Settings: NIH 3T3 viability, CellTiter-Glo ATP luminescence, 48-72 h; activity change, negative = cytotoxicity: at 96.7 µM (top of the series); series mostly up to 96.7 µM
# Summary of the method: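 Cytotoxicity was measured by CellTiter-Glo ATP luminescence after 48 or 72 h compound exposure at 37 °C. Mouse NIH 3T3 fibroblasts were seeded at 400 cells/well and dosed by 23 nL pin transfer.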
# On the % scale 0 is the no-effect control and ±100 the full control effect; potency means the concentration at half of the fitted maximal effect; tags describe the fitted curve by direction and shape.
Compound,Potency,"activity change, negative = cytotoxicity",outcome
Cc1ccc(C(=O)NC2CCN(c3cc(-c4ccccc4)[nH]n3)C2)cc1 (stereo not drawn),"inconclusive: 56.2 µM [inhibitor, partial curve, poor fit]",–,–
c1ccc(-c2cnc(Nc3ccc4c(c3)OCCO4)c3c2CCO3)cc1,"inconclusive: 44.7 µM [inhibitor, full curve]",–,–
CNC(=O)C1CN(c2ccccc2)C(=O)N1 (stereo not drawn),–,inactive: -9.25% [at 174 µM],–
COc1ccc(-n2c(=O)c3c(n2Cc2ccccc2)CN(CC2CCOC2)CC3)cc1 (stereo not drawn),"inconclusive: 44.7 µM [inhibitor, partial curve, poor fit]",–,–
NC(=O)CNC(=O)C1=C[C@@H](NS(=O)(=O)c2cccc(C(F)(F)F)c2)[C@@H](O)[C@H](O)C1,–,inactive: 0.812%,–
COc1cccc(C(=O)N2CCC(Cc3nc(-c4cnccn4)no3)CC2)c1,–,inactive: -14.6%,–
Cc1oc2c(c1C(=O)NCCN1CCCC(C)C1)CN(Cc1cccc(F)c1)CC2 (stereo not drawn),"inconclusive: 44.7 µM [inhibitor, partial curve, poor fit]",–,–
COC(=O)C1=C(C)N=C2SC=C(CC(=O)N3CCCC3)N2C1c1ccc(C)cc1C (stereo not drawn),active: 25.1 µM,–,–
O=C(Nc1ccc([C@@H](O)[C@H]2COCC(=O)N2CCCc2ccccc2)cc1)C1CC1,"inconclusive: 39.8 µM [inhibitor, full curve, poor fit]",–,–
c1cc(Cn2ccc3c(N4CCOCC4)nc(-c4ccc5cn[nH]c5c4)cc32)ccn1,active: 25.1 µM,–,–
CO[C@H]1C(=O)N(C2CCN(C(=O)c3nccc4ccccc34)CC2)[C@H]1c1ccncc1,"inconclusive: 50.1 µM [inhibitor, partial curve, poor fit]",–,–
CN1CCC(N2CCC[C@H]2c2nc(-c3ccc(OC4CCCCC4)nc3)no2)CC1,active: 28.2 µM,–,–
CCNC(=O)O[C@@H]1CO[C@H]2[C@@H]1OC[C@@H]2NC(=O)Nc1ccc(C(C)C)cc1,–,inactive: 0.427% [at 174 µM],–
Cc1noc(C)c1[S+](=O)([O-])NC1CCN(c2ccc3nnc(C)n3n2)CC1,–,inactive: -23.4%,–
Cc1cccc([C@H]2C[C@@H](O)[C@@H](O)[C@@H]2NS(=O)(=O)c2ccccc2)c1,–,inactive: -7.04% [at 174 µM],–
O=C(NCCc1ccc(F)cc1)c1cc(-c2ccccc2)c2nncn2n1,"inconclusive: 39.8 µM [inhibitor, partial curve, poor fit]",–,–
O=c1ncn(Cc2ccccc2)c2ccc(NCCOc3ccccc3)nc12,"inconclusive: 112 µM [inhibitor, single point]",–,–
O=C(Nc1ccc(Cl)cc1)c1nc2c(o1)CCN(Cc1nccs1)CC2,"inconclusive: 17.8 µM [inhibitor, full curve, poor fit]",–,–
CCOc1cc(=O)n2c(c1C(=O)Nc1ccc(Br)cc1F)CCCC2,–,inactive: -23.2%,–
Cc1noc(C)c1-c1cc2c(cc(C)n2C)c(-c2cccc([S+](C)(=O)[O-])c2)n1,active: 14.1 µM,–,–
CC(C)C(=O)N1CCC(C(NC(=O)c2ccccc2Cl)C(=O)N2CCCCC2)CC1 (stereo not drawn),"inconclusive: 70.8 µM [inhibitor, partial curve, poor fit]",–,–

Compound,Potency,"activity change, negative = cytotoxicity",outcome
O=C(N[C@@H]1CN(c2ncccn2)C[C@H]1CO)c1ccc2c(c1)OCO2,–,inactive: -14.7%,–
CN(C)c1ccc2c(c1)CN(C(=O)c1cnccn1)CCO2,–,inactive: -19.3%,–
O=C1NCc2ccccc2CC12CCCN2Cc1ccsc1 (stereo not drawn),–,inactive: -22.4%,–
O=C(NCCOc1ccccc1)c1nc2c(o1)CCN(Cc1ccc3[nH]ccc3c1)CC2,"inconclusive: 50.1 µM [inhibitor, partial curve, poor fit]",–,–
COCCNC(=O)c1cn2cc(-c3ccc(C)cc3)sc2n1,"inconclusive: 79.4 µM [inhibitor, partial curve]",–,–
O=C(Cc1ccc(F)cc1)N1CCN(c2cc(-c3ccc(Cl)cc3)[nH]n2)CC1,"inconclusive: 35.5 µM [inhibitor, partial curve, poor fit]",–,–
CC[C@H]1CN(C(=O)Nc2cccc(OC)c2)CC[C@H]1CC(=O)NCc1cccnc1,–,inactive: -1.11% [at 174 µM],–
CN1CCNc2cc(-c3ccc(N4CCOCC4)cc3)ncc2C1,"inconclusive: 56.2 µM [inhibitor, partial curve, poor fit]",–,–
Fc1ccc(OCc2nnc([C@H]3CCN(Cc4cccnc4)C3)o2)cc1,"inconclusive: 112 µM [inhibitor, partial curve, poor fit]",–,–
N#Cc1cccc(NC(=O)Nc2ccc(=O)n3c2[C@@H]2C[C@@H](CN(C(=O)COc4ccccc4)C2)C3)c1,–,inactive: -13%,–
COc1ccc(C(=O)N2C[C@@H](F)C[C@H]2C(=O)N2CCCCC2)c(OC)c1,–,–,inactive
COCCOc1ccnc(-c2noc([C@@H]3CCCN3Cc3ccc(Cl)cc3)n2)c1,"inconclusive: 44.7 µM [inhibitor, partial curve, poor fit]",–,–
CCN1c2cc(C(=O)NCc3cccc(C)c3)ccc2C(=O)N2CCCCC21 (stereo not drawn),"inconclusive: 70.8 µM [inhibitor, partial curve, poor fit]",–,–
Cn1cc(-c2cc(-c3ccncc3)c3cncn3c2)cn1,active: 39.8 µM,–,–
N#Cc1cccc(CN2C[C@H](O)C[C@H]2c2nc(CS(=O)(=O)c3ccc(F)cc3)no2)c1,"inconclusive: 44.7 µM [inhibitor, partial curve, poor fit]",–,–
CN1CCC(CN2CCC3(CC2)COCCN3C(=O)c2ccccc2)CC1,"inconclusive: 100 µM [inhibitor, partial curve]",–,–
CNCc1ccc(N2CCCC2)cc1,"inconclusive: 112 µM [inhibitor, partial curve, poor fit]",–,–
COc1ccc(C)cc1NC(=O)COc1ccc(-c2nnc3n2CCCC3)cc1,"inconclusive: 50.1 µM [inhibitor, partial curve, poor fit]",–,–
COc1cccc([S+](=O)([O-])N2CCC3(CC2)CNC(=O)c2ccccc2O3)c1,"inconclusive: 35.5 µM [inhibitor, partial curve]",–,–
Cc1ccc(NC(=O)Cn2c(N(C)Cc3ccccc3)nc(C)cc2=O)c(C)c1,"inconclusive: 89.1 µM [inhibitor, partial curve, poor fit]",–,–
Cc1ccc(OCC(=O)N2CCC(Cc3nc(-c4ccccc4)no3)CC2)cc1,"inconclusive: 44.7 µM [inhibitor, partial curve, poor fit]",–,–

Compound,Potency,"activity change, negative = cytotoxicity",outcome
Cc1ccccc1-c1noc(CN(C)Cc2cc(-c3ccncc3)no2)n1,"inconclusive: 50.1 µM [inhibitor, partial curve, poor fit]",–,–
CNC(=O)CCn1ncc2cc(OC3CCc4cccc(-c5cccnc5)c43)ccc21 (stereo not drawn),"inconclusive: 79.4 µM [inhibitor, partial curve]",–,–
CCOC(=O)c1ccc(NC(=O)Cn2c(N3CCCCC3)nc(C)c(C)c2=O)cc1,"inconclusive: 50.1 µM [inhibitor, partial curve, poor fit]",–,–
Cc1ccc(C2=NC3(CCN(C(=O)c4cc(F)ccc4Cl)CC3)ON2)cc1,"inconclusive: 50.1 µM [inhibitor, partial curve, poor fit]",–,–
O=C(Nc1ccc(Cl)cc1)N1CCC2(CC1)CC(=O)N(c1ccccc1)c1ccccc1O2,"inconclusive: 44.7 µM [inhibitor, partial curve, poor fit]",–,–
O=C(c1cnn2cc(CCO)cnc12)N1CCCC(CCc2ccc(F)cc2)C1 (stereo not drawn),"inconclusive: 56.2 µM [inhibitor, partial curve, poor fit]",–,–
O=C(CCC1CCCC1)N1CC[C@@H]2COCCN(Cc3ccncc3)[C@@H]2C1,"inconclusive: 44.7 µM [inhibitor, partial curve, poor fit]",–,–
Cc1ccc(Nc2ccnc(N3CCCC3C(=O)N3CCC(c4ccccc4)CC3)n2)cc1 (stereo not drawn),active: 31.6 µM,–,–
c1coc(-c2nnc([C@H]3CCN(Cc4c[nH]c5ccccc45)C3)o2)c1,"inconclusive: 100 µM [inhibitor, single point]",–,–
COC1C(=O)N(c2cccc(F)c2)C12CCN(C(=O)C1(c3ccccc3)CC1)CC2 (stereo not drawn),–,inactive: -15.4%,–
COc1ccc(Nc2ccnc(N3CCCC(C(=O)NCCSC)C3)n2)cc1 (stereo not drawn),"inconclusive: 39.8 µM [inhibitor, partial curve, poor fit]",–,–
Cn1ncc2c(C(=O)Nc3cccc(C(F)(F)F)c3)cc(-c3cccc(C(F)(F)F)c3)nc21,"inconclusive: 70.8 µM [inhibitor, single point]",–,–
COc1ccc(-c2ccc(CN)cc2)cc1,"inconclusive: 89.1 µM [inhibitor, partial curve, poor fit]",–,–
COC(=O)[C@@H]1C[C@@H](NC(=O)C2CCN(C(=O)CC(C)C)CC2)CN1C,–,inactive: -7.76%,–
COCCNC(=O)c1coc(COc2ccc3c(c2)C(c2cccc(F)c2)N(C(=O)C(C)C)CC3)n1 (stereo not drawn),"inconclusive: 44.7 µM [inhibitor, partial curve, poor fit]",–,–
O=C(Cc1ccccn1)N1CCCC2(CN[S+](=O)([O-])c3cccnc3N2)C1 (stereo not drawn),–,–,inactive
COc1ccc(CN[C@H]2[C@H](O)[C@H](O)C[C@@H]2c2ccc(C(F)(F)F)cc2)cc1,active: 28.2 µM,–,–
CC(Cn1cncn1)NC(=O)c1ccc(CCC(C)(C)O)cc1 (stereo not drawn),–,inactive: -8.68%,–
COc1ccc(CCNC(=O)c2cn3cc(-c4ccc(C)cc4)sc3n2)cc1,"inconclusive: 44.7 µM [inhibitor, partial curve, poor fit]",–,–
COc1ccc(NC(=O)c2c(-c3cnn(C)c3NCc3ccc(C#N)cc3)noc2C)cc1,"inconclusive: 20 µM [inhibitor, full curve]",–,–
CC(=O)c1cc(C(=O)N2C[C@H]3CC[C@@H]2CN(CCCc2ccccc2)C3)cs1,"inconclusive: 44.7 µM [inhibitor, partial curve, poor fit]",–,–
